According to US10172829B2 (priority 2014, dated 2019):

Tested on: C. difficile strain 630

## O=c1c2ccccc2[se]n1-c1ccccc1 [Ebselen, 2-phenyl-1,2-benzoselenazol-3-one]
100 mg/kg daily via oral gavage, day 5 post infection, vs vehicle
  shed-toxin induced EC50 of cell-rounding (feces applied to HFF cells): significant reduction
mouse, in vivo
  C. difficile colony forming unit (CFU) counts from fecal samples, ebselen- vs vehicle-treated: did not observe a significant difference
